In PubChem BioAssay AID485344 (National Center for Advancing Translational Sciences (NCATS), 2010):
Among all 340,000 compounds or so, about 6,900 (2%) were called active. Rule as the data show it: active = inhibition above about 30%; inactive = below that, where a call was filed. The entries are a selection whose mix differs from that of the whole data set. Where no call is shown, the source filed none.

Biological target: D(2) dopamine receptor (Homo sapiens) (UniProt P14416)
Experiment: HTS Assay for Allosteric Antagonists of the Human D2 Dopamine Receptor: Primary Screen for Antagonists; also: 0% is about no effect
Conditions: HEK293 TREx D2 cells, calcium flux, dopamine EC80; at 10 µM; stronger effect = higher value
Procedure, shortened: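 Calcium flux kinetic readout in an inducible HEK293 TREx D2 line plated overnight at 30 C. After 180 s compound exposure, an EC80 dopamine challenge follows with another 180 s kinetic read to detect antagonism.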

Chain of UniProt P14416 (P14416 whole entry, looked up): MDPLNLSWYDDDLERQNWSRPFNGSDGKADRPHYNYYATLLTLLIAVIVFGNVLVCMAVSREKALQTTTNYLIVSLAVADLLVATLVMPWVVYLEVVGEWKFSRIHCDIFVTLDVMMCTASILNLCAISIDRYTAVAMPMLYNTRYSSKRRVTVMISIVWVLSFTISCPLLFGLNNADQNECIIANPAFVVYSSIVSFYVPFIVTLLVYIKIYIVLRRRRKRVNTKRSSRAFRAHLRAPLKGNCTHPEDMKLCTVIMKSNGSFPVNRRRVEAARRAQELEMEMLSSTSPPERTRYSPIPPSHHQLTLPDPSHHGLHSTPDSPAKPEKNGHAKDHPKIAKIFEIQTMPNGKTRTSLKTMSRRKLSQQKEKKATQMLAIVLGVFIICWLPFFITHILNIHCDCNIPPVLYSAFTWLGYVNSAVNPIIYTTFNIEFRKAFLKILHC

SMILES	inhibition
CCOc1ccc(OCC(O)CN2CCc3ccccc3C2)cc1 (stereo not drawn)	active: 50.1%
FC(F)(F)c1ccc2c(c1)ncc1c(-c3ccccc3)nn(-c3ccccc3)c12	15.1%
COc1ccc(-c2cn3nc(N4CCC(C(=O)NCc5cccc(Cl)c5)CC4)sc3n2)cc1	8.76%
COC(=O)c1ccc(Nc2nc(-c3ccc(C)cc3)nc3ccccc23)cc1	9.02%
CC(=O)N1CCc2c(sc3c2c(=O)n(Cc2ccccc2)c(=O)n3Cc2cccc(Cl)c2)C1	-10.1%
COc1cc(-c2noc(-c3ccc(N4CCCC4)c([N+](=O)[O-])c3)n2)cc(OC)c1OC	-0.982%
CCC(=O)N1CCc2cc(CNC(=O)Cc3ccc(OC)c(OC)c3)ccc21	2.67%
Cc1ccccc1Cn1cnc2c(oc3ccccc32)c1=O	0.472%
CCC1=C(OC(=O)N(CC)CC)N2C(=O)OC(=NCCOC)[C@]2(Cc2ccccc2)[C@H]2C1=CC[C@H]1C(=O)NC(=O)[C@H]12	active: 51.7%
COc1cc(C(=O)N2CCc3c([nH]c4ccccc34)C2c2ccc(F)cc2)cc(OC)c1OC (stereo not drawn)	-10.7%
CC1=Nc2cc(C(=O)NC3CCC(C)CC3)ccc2Sc2c(C)ccc(C)c21 (stereo not drawn)	-0.332%
CCOc1ccc(NC(=O)Nc2cccc(C)n2)cc1	-21.4%
Cc1ccc(-n2nc3c(N4CCC(C(=O)NCCc5ccccc5)CC4)nnc(C)c3c2C)cc1	0.0643%
COc1ccc(C)cc1NC(=O)CN(C)S(=O)(=O)c1ccc2c(c1)CCCN2C(C)=O	-16.5%
COCCCN1CN=C(NS(=O)(=O)c2ccc(NC(C)=O)cc2)NC1	-5.26%
CCOC(=O)c1sc2ccccc2c1S(=O)(=O)N1CCN(c2ccccc2F)CC1	-9.15%
COc1ccc(N2Cc3cccc(C(=O)Nc4ccc(C)cc4)c3C2=O)cc1	17.9%
COc1cc(OC)c(NC(=O)Cn2nc(C)n3cccc3c2=O)cc1Cl	8.28%
CCC(=O)N1CCc2cc(S(=O)(=O)N3CCN(c4ccccc4F)CC3)ccc21	7.83%
CC1=C(c2cccc(Cl)c2)S(=O)(=O)NC1=NCc1ccccc1C	3.22%
O=C(NCC(c1ccco1)N1CCN(c2ccccc2)CC1)c1ccco1 (stereo not drawn)	active: 40.3%
COc1ccc(C)cc1NC(=O)CN1C(=O)CSc2ccc(S(=O)(=O)N3CCCC3)cc21	-14.8%
Cc1ccc(C)c(NC(=O)CCc2nc3cccnc3n2Cc2cccs2)c1	-2.56%
CCN(CC)C(=O)CSc1nc(-c2ccccc2)cc(-c2ccc(OC)cc2)c1C#N	0.939%

SMILES	inhibition
COc1cccc(NC(=O)Cn2c(=O)n(-c3ccccc3)c(=O)c3c4c(sc32)CCCC4)c1	-1.16%
Cc1ccc(-c2cc(N)n(Cc3cccc(Cl)c3)n2)cc1	4.35%
Cc1ccccc1-c1ccnc2c(-c3ccc(F)cc3)c(C)nn12	15%
COc1ccc(C2Nc3ccccc3-n3c(-c4ccccc4)c4c(=O)n(C)c(=O)n(C)c4c32)cc1 (stereo not drawn)	-4.21%
COc1ccccc1-c1noc(-c2ccc(NCc3ccccc3)c([N+](=O)[O-])c2)n1	-8.12%
Cc1cc2nc(NC(=O)c3ccc(S(=O)(=O)N4CCOCC4)cc3)sc2cc1C	3.54%
COc1cccc(CN(C(=O)c2oc3ccc(Br)cc3c2C)C2CCS(=O)(=O)C2)c1 (stereo not drawn)	3.54%
CCc1ccc(N(C(C)=O)C2C=CS(=O)(=O)C2)cc1 (stereo not drawn)	active: 37.2%
Cc1nc2ccn(Cc3ccccc3)c(=O)c2cc1C(=O)Nc1ccc(F)cc1Cl	1.87%
COC(=O)CNC(c1ccccc1)c1cc(Br)ccc1NC(=O)c1ccc(Cl)cc1 (stereo not drawn)	8.26%
Cc1coc2cc3oc(=O)c(CCC(=O)N4CCCCC4)c(C)c3cc12	8.36%
CCC(=O)N1CCc2cc(Br)cc(S(=O)(=O)NCc3cccc(OC)c3)c21	-22.9%
Cn1c2ccc(F)cc2c2nnc(SCCN3CCOCC3)nc21	active: 35.3%
CCOC(=O)c1ccccc1NC(=O)c1c(-c2ccccc2)noc1C	-26.8%
CCN(CC)S(=O)(=O)c1ccc2c(c1)c(=O)c(C(=O)NCCc1ccc(OC)c(OC)c1)cn2C	-9.36%
O=C(Cn1cc(SCc2ccccc2)c2ccccc21)N1CCCCC1	5.6%
COc1ccc(-c2nc(C)c(CCNC(=O)C(=O)Nc3c(C)cccc3C)s2)cc1OC	-1.16%
CCc1ccc(CNC(=O)CN(c2ccc(C)cc2)S(=O)(=O)N(C)C)cc1	8.59%
COc1ccc(OC)c(CCNC(=O)C2CCN(c3ncnc4c3nc3n4CCCCC3)CC2)c1	1.82%
N#Cc1c(-n2ncnc2-c2ccc(Br)cc2)sc2c1CCCCC2	-1.3%
CSc1ccc(CNC(=O)C2CCN(c3nnc(-n4cccc4CNc4ccc(C)cc4)s3)CC2)cc1	13%
COc1ccc(OC)c(NC(=O)CCc2c(C)nn(-c3ccc(N4CCCC4)nn3)c2C)c1	-18.6%
Cc1ccc(N2CC(NC(=O)c3ccc(S(=O)(=O)N4CCCC4)cc3)CC2=O)cc1 (stereo not drawn)	-12.1%
CC(C)(C)OC(=O)N1CCC(c2c(C(=O)NCCCN3CCc4ccccc4C3)cnn2-c2ccccc2)CC1	23.7%

SMILES	inhibition
O=C(Nc1ccc2c(c1)CCCN2C(=O)c1cccs1)c1c(F)cccc1F	12.4%
O=C1CC(=O)Nc2cc(S(=O)(=O)Nc3cccc(C(F)(F)F)c3)ccc2N1	active: 30.5%
Cc1ccc(NC(=O)c2cn3c4c(ccc(Cl)c4c2=O)OC(C)C3)c(C)c1 (stereo not drawn)	15.2%
O=C(CCc1cn(Cc2ccccc2Cl)c2ccccc12)NC1CCCCC1	12.7%
C/C(N)=C(/C#N)C(=O)COC(=O)c1cc(-c2ccc(Br)cc2)nc2ccccc12	active: 46.8%
Cc1c(C(=O)N2CCC(C)CC2)c(S(=O)(=O)NCc2ccc(Br)cc2)c(C)n1C	-12%
CC(C)c1ccc(NC(=O)C2CCN(c3nc(-c4ccc(C(C)C)cc4)no3)CC2)cc1	3.47%
CCCCc1nc2ccccc2n2c(-c3ccc(OC)cc3)c3c(=O)n(C)c(=O)n(C)c3c12	2.84%
COc1ccc(CNC(=O)c2cc(-c3cccc(Cl)c3)on2)cc1	4.62%
Cc1ccccc1Nc1c(-c2ccc(Cl)s2)nc2c(C)cccn12	9.03%
Cc1nc2sccn2c(=O)c1CCN1CCC(=C(c2ccc(F)cc2)c2ccc(F)cc2)CC1	active: 78.3%
COc1ccc(-n2ncc(C(=O)N3CCN(c4ncccn4)CC3)c2C2CCN(C(=O)OC(C)(C)C)CC2)cc1	9.88%
Cc1cc(C)cc(NC(=O)CCCN2C(=O)COc3ccc(C)cc32)c1	19.7%
O=C(COc1ccc([N+](=O)[O-])cc1)NCC1(N2CCOCC2)CCCCC1	-12.6%
Nc1cc(=O)nc(SCC(=O)Nc2ccc(F)cc2)n1-c1ccccc1Cl	-1.54%
COc1ccc(C)cc1NC(=O)C1CCN(S(=O)(=O)c2ccc3[nH]c4c(c3c2)CCCCC4)CC1	0.899%
Cc1c(C)c2c(OCC(=O)N[C@@H](C(=O)O)c3ccccc3)cc3c(c2oc1=O)CCC(C)(C)O3	active: 30.5%
CC(=O)c1cccc(NC(=O)CSc2nc(=O)n(Cc3cccnc3)c3c2CCC3)c1	20.1%
Oc1c(C(c2ccccc2F)N2CCCCC2)sc2nc(-c3ccco3)nn12 (stereo not drawn)	3.43%
O=C(CCCn1c(=O)c2ccccc2n(Cc2ccc(F)cc2Cl)c1=O)NCCc1ccc(Cl)cc1	22.7%
COC(=O)c1ccccc1NC(=O)c1nc(S(=O)(=O)Cc2cccc(C)c2)ncc1Cl	13.2%
CCOc1ccc(-c2cc(-c3nc(-c4cc(OC)c(OC)c(OC)c4)no3)[nH]n2)cc1Cl	6.17%
Cc1cccc(NC(=O)c2c(C)cc(C)nc2SCC(=O)Nc2c(C)cc(C)cc2C)c1	-21.9%
CC(=O)Nc1ccc(NC(=O)c2ccc(COc3ccc(Cl)cc3Cl)o2)cc1	5.69%

SMILES	inhibition
Cc1ccc(-n2nc(CO)c(C(=O)NCc3cccs3)n2)cc1C	-5.68%
COC(=O)c1cc(NC(=O)[C@H](CCS(C)(=O)=O)N2Cc3ccccc3C2=O)cc(C(=O)OC)c1	-8.51%
CCc1ccc(-c2nc3cc(NC(=O)c4cc5ccccc5cc4OC)ccc3o2)cc1	-13.2%
CCc1cc(C(=O)NC(C)c2ccccc2)no1 (stereo not drawn)	-11.8%
COc1ccc(Br)c(C(=O)Nc2cc3c(cc2N2CCCCC2)n(C)c(=O)c(=O)n3C)c1	-11.2%
COc1cc2c(cc1OC)C(COc1ccc(F)cc1)N(C(=O)c1ccc(S(=O)(=O)N3CCCC3)cc1)CC2 (stereo not drawn)	24.9%
COc1cc(C2CC(=O)N(Cc3ccc(F)cc3)c3ccccc3S2)cc(OC)c1OC (stereo not drawn)	-9.88%
CCC(C)n1c(SCc2c(F)cccc2Cl)nc2ccsc2c1=O (stereo not drawn)	-11.2%
COc1ccc(N2CCN(S(=O)(=O)c3ccc4c(c3)CCCN4C(C)=O)CC2)cc1	-20.1%
COc1cc2c(cc1OC)C(COc1ccc(C(C)C)cc1)N(C(=O)c1ccc(S(=O)(=O)N3CCCC3)cc1)CC2 (stereo not drawn)	5.42%
CC1CCN(CCCNC(=O)c2cn(C)c3ccc(S(=O)(=O)N(C)C4CCCCC4)cc3c2=O)CC1	13.4%
COc1cc(N2C(=O)CSC23C(=O)N(Cc2ccc(C)cc2)c2ccccc23)cc(OC)c1OC (stereo not drawn)	-2.79%
Cc1ccc(C)c(CN2C(=O)c3ccccc3S(=O)c3ccc(C(=O)N4CCN(c5ccccc5F)CC4)cc32)c1 (stereo not drawn)	10.8%
Cn1c(=O)oc2cc(S(=O)(=O)N3CCC(C(=O)NCc4ccc(F)cc4)CC3)ccc21	15%
CC1CCCCN1C(=O)Cn1nnc(-c2cccnc2)n1 (stereo not drawn)	active: 31.9%
COc1ccc(Nc2nc3cc(Cl)c(Cl)cc3n3cnnc23)cc1Cl	-13.1%
Cc1ccc(N2C(=O)C3C4C=CC(CC4)C3C2=O)cc1Br (stereo not drawn)	active: 54.9%
CCCCN(C)CCNC(=O)c1ccc2c(c1)NC(=O)C(N1CCCCC1)S2 (stereo not drawn)	active: 73.3%
Cc1ccccc1OCCCn1c(-c2ccc(Cl)cc2)nc2ccccc2c1=O	15.5%
O=C(Nc1nnc(S(=O)(=O)N2CCCC2)s1)c1ccccc1Br	-3.92%
Cc1ccccc1Cn1nnc2c(=O)[nH]c(C3CCCN(C(=O)c4ccc(F)cc4)C3)nc21 (stereo not drawn)	4.1%
